The supplement of paper PMC11417369
± gives the standard deviation of the averaged measurements. The list shows a part of the results.

What follows are sequences tested on PfAP2-G AP2 domain (GST-tagged) (assay: gcPBM binding intensity (ln(normalized median fluorescence intensity)); higher = stronger DNA binding).
Summary of the method: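 The highest Masliner-normalised natural-log median intensity across replicate spots of either probe orientation is reported as binding intensity. GST-tagged P. falciparum DNA-binding domains expressed in E. coli were applied for 1 h to an Agilent 4 × 180k array of primer-extended double-stranded 36-bp intergenic genomic probes plus negative controls, and bound protein was detected with Alexa488 anti-GST antibody and scanned at 488 nm.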

Row | Sequence | gcPBM binding intensity (ln)
1 | ACGATGAATATGTAAAGTACGCAAATGTAACAATAT [XGTACX_site728] | 11.4 ± 0.78
2 | CATATATATTGATATGCACACCTATGTATTGATGTA [CACACA_site8269] | 10.1 ± 0.14
3 | AGCATTTTTCATTTTGCACACATGTTTTATGGGTAT [CACACA_site5839] | 10.11 ± 0.078
4 | TCTTTTTTCTTTTTTTCACACATTATTTTTTAAATA [CACACA_site5197] | 9.95 ± 0.071
5 | GTAGTTACATATAGGGTGCTCCAATAGTTGACCTCG | 10.3 ± 0.21
6 | TCATAGGTTCAAAAGGGTACATTAATACATACATAT [XGTACX_site2236] | 11.1 ± 0.57
7 | AAATAAAAAAAGGGAACATGCAATATGTACAAATAT [TGCATGCA_site869] | 11.2 ± 0.64
8 | ATTTTTTATGTTAATGCATGCTCATGTGTATTTCAT [TGCATGCA_site751] | 10.1 ± 0.16
9 | TTATCTTTTTTCGTTTGTACGTAACCATATTACTAT [XGTACX_site8853] | 11.4 ± 0.86
10 | AAATATAACATCATCACACACATATACTTTATATGC [CACACA_site1126] | 9.8 ± 0.057
11 | AGCTTCATATTATGGAGTACTATTAAAAATAAATAA [XGTACX_site2649] | 11.3 ± 0.83
12 | AGATATTATAAAATATGTACATATATATATATATAT [XGTACX_site2088] | 11.3 ± 0.78
13 | TAATTAGATTATTTTTGTACATATTATTATAGGTTA [XGTACX_site2077] | 10.8 ± 0.47
14 | AAAGTAATAATGATTTGTACATATATATATATATAT [XGTACX_site8821] | 10.7 ± 0.49
15 | ATGCAAATGTGCATCACACACACTAATGGGTATGTA [CACACA_site2893] | 9.85 ± 0.13
16 | GGAATATATATACATACACACATATATATATATATA [CACACA_site1666] | 10.2 ± 0.44
17 | AAAAATAATTATTCGTGTACAAAAAAAAAAATATAA [XGTACX_site439] | 11.3 ± 0.7
18 | ATAAATATACATTATACCGACCATGTGGATATTATA [XGTACX_negctrl_site241] | 10.2 ± 0.11
19 | TTTTATTATAATAATTGTACAAAAATTATTTAATAT [XGTACX_site6054] | 10.9 ± 0.5

Row | Sequence | gcPBM binding intensity (ln)
20 | TTAATTTATTATCTTTGTACACAATTAAAAAAAAAA [XGTACX_site3469] | 11.3 ± 0.99
21 | AGAAAAAAAAAAAAAAAAATATATATATATATATAT [TGCATGCA_negctrl_site411] | 9.79 ± 0.46
22 | GTATATATATACCATTGTACTTTCGTAAAAATATTT [XGTACX_site4846] | 11.1 ± 0.78
23 | AAAAAAAAAAAAAAAACACACATACACGCACGCACA [CACACA_site7569] | 10.7 ± 0.27
24 | AAAAAAAAAAAAAAAAGTACAAGCATTGCGTTTTAA [XGTACX_site6075] | 11.5 ± 0.83
25 | ATATATATAAATAAATGTACATAAATAATATATTAT [XGTACX_site5419] | 11.1 ± 0.48
26 | TATATATATATATATATATTTATGTATTTATTTAAT [TGCATGCA_negctrl_site179] | 10.2 ± 0.89
27 | TTTTGGTTTTGTTCTACACACATAAAAAAAAAAAAG [CACACA_site2276] | 10.4 ± 0.5
28 | TTTCTATTTATTAATACATGCAAAATAAAGTAAAGT [TGCATGCA_site209] | 10.3 ± 0.4
29 | ATATATCAATATGGAATATATATATATATATATATA [TGCATGCA_negctrl_site502] | 9.96 ± 0.58
30 | TTATTTTTATATTTTAATTTTAAAAAAATTTTAATT [CACACA_negctrl_site777] | 9.73 ± 0.23
31 | ATTATACATATTATATGTACATATATAAATAAATAA [XGTACX_site7076] | 11.1 ± 0.57
32 | CTTTGTAGTATATTAACACACAACTGTTTATAATAT [CACACA_site6038] | 10.1 ± 0.17
33 | ATATATTATAGGTACACACACATATAAGGGATTATA [CACACA_site6154] | 11.3 ± 0.92
34 | ATATACATATATATTGCATGCAGAGAGTATTTATAA [TGCATGCA_site646] | 9.95 ± 0.22
35 | ATATATATATATATTGTGCACAAAAAAAAATAAGCA | 10.7 ± 0.45
36 | GGAAAGACAGTTCACAGTACCCAGGAAATCTACGGA [XGTACX_site1996] | 10.8 ± 0.51
37 | TTCTTTAAAAAATTCGATAAAAAAAAAAAAAGAAAA [CACACA_negctrl_site242] | 9.58 ± 0.21
38 | TATATACTCATGCGCACACACAAGTGGGAAATTTGG [CACACA_site5056] | 10.5 ± 0.27

Row | Sequence | gcPBM binding intensity (ln)
39 | TTATTAAATATGTACACACGTACATTTTATAAATGA [CACACA_site2387] | 11.7 ± 1.1
40 | ATAATAATAAAATATATATACAAAGGTGAAATTATA [TGCATGCA_negctrl_site197] | 9.995 ± 0.007
41 | TATTTTTTTTTCCATTGTACATTTTTGATATTTTTC [XGTACX_site744] | 10.8 ± 0.43
42 | TATATATATATTTAGTGTACTTAAAAAAAATAATAA [XGTACX_site5454] | 11.5 ± 0.96
43 | AACAACATGTAGACGCGTACCAACATCAGATCCTAT [XGTACX_site4071] | 11.2 ± 0.71
44 | ATTATAATTATATATGCATGTAGCATTTTCTATTTT [TGCATGCA_site66] | 9.49 ± 0.25
45 | AACAAATTTATCCAAAGTACAAAATATCATTTCTTA [XGTACX_site4543] | 10.7 ± 0.5
46 | TATAAATACTAAAAAAGTACAAAATTTCATAAAAAA [XGTACX_site2709] | 11.2 ± 0.69
47 | GGAAAATCTAATCATTTAATATTTATTTATCTAATT [GTGCAC_negctrl_site553] | 9.37 ± 0.24
48 | ATTTTATATAATACATGTACAAAAGTTTAAATTTAT [XGTACX_site6196] | 11.1 ± 0.4
49 | TTATAATATAGCAATTATTAAATAGGATCAAATGAA [CACACA_negctrl_site632] | 9.92 ± 0.071
50 | TTGGTGGATAAATTTACACACAATAACTTTCGTTCA [CACACA_site6358] | 10.1 ± 0.17
51 | AGAAGAAAAGTAAAAAGTACATTATTCATGGCCTAT [XGTACX_site5601] | 11.1 ± 0.57
52 | TATTTGTAAATTATTTGGGTGTGTAGGGGATATTCT [XGTACX_negctrl_site204] | 10.13 ± 0.071
53 | CGTTCATATTATTATAGTACATATTATTATAGTTTT [XGTACX_site1550] | 10.9 ± 0.45
54 | TTTTTTTTTTTATTTGCATGCGGTGTTCATAATATT [TGCATGCA_site199] | 10.02 ± 0.092
55 | AGAGCTGTTTTTTATGCATGTAGTTTAGAAAATACA [TGCATGCA_site257] | 9.96 ± 0.2
56 | TTTATCTTATTTTTATGTACTTATTTTATAAAAAAA [XGTACX_site7730] | 11.4 ± 1
